From the supplement of paper PMC4967469
A lower IC50 marks a more sensitive line; a fit beyond the top or the lowest dose is shown as a bound at that dose. AUC sums up the same curve from the lowest dose to the 256-fold higher top dose: 1 means no effect, lower means more sensitive. For part of these data: Any top dose called inferred was derived from the fitted curves, not read from the paper. For part of these data: Drugs with an entry number were screened twice under separate entries, and the two screens often disagree.

Key:
Assay in all cases: Viability of human cancer cell lines after 72 h of drug (GDSC screen)
[1] = compound: CC(=O)c1c(C)c2cnc(Nc3ccc(N4CCNCC4)cn3)nc2n(C2CCCC2)c1=O [PD-0332991]
Protocol: (§1)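 Human cancer cell lines in 384-well plates, medium with 10% serum, drug for 72 h over a 256-fold dose range (nine 2-fold or five 4-fold steps up to the top dose). Adherent lines were fixed and stained with the nucleic acid dye Syto60, suspension lines read with resazurin; signal relative to control wells, capped at 0 and 100%. One two-parameter sigmoid per drug and line, fitted in a mixed model over all curves with the slope shared within a line.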

[2] = compound: Cn1cnc2c(F)c(Nc3ccc(Br)cc3Cl)c(C(=O)NOCCO)cc21 [AZD6244]; conditions: screen: GDSC drug entry 1062
Protocol: as §1

[3] = compound: COc1cc2c(Nc3ccc(NC(=O)c4ccccc4)cc3)ncnc2cc1OCCCN1CCOCC1 [ZM-447439]; conditions: top dose inferred
Protocol: as §1

| Cell Line | AUC [1] | IC50 [1] | AUC [2] | IC50 [2] | AUC [3] | IC50 [3] |
| --- | --- | --- | --- | --- | --- | --- |
| COLO-205 (large intestine, suspension, top dose 4 µM) | 0.927 | > 4 µM | 0.319 | 0.0785 µM | 0.879 | > 4 µM |
| COLO-320-HSR (large intestine, suspension, top dose 4 µM) | 0.912 | > 4 µM | 0.991 | > 4 µM | 0.981 | > 4 µM |
| COLO-668 (small cell lung carcinoma, adherent, top dose 4 µM) | 0.989 | > 4 µM | 0.951 | > 4 µM | 0.941 | > 4 µM |
| COLO-678 (large intestine, semi-adherent, top dose 4 µM) | 0.879 | > 4 µM | 0.678 | 0.914 µM | 0.98 | > 4 µM |
| COLO-679 (melanoma, adherent, top dose 4 µM) | 0.904 | > 4 µM | 0.544 | 0.334 µM | 0.947 | > 4 µM |
| COLO-680N (oesophagus, adherent, top dose 4 µM) | 0.881 | > 4 µM | 0.843 | 3.63 µM | 0.925 | > 4 µM |
| COLO-684 (endometrium, suspension, top dose 4 µM) | 0.981 | > 4 µM | 0.984 | > 4 µM | 0.968 | > 4 µM |
| COLO-783 (melanoma, adherent, top dose 4 µM) | 0.901 | > 4 µM | 0.99 | > 4 µM | 0.991 | > 4 µM |
| COLO-800 (melanoma, adherent, top dose 4 µM) | 0.658 | 0.675 µM | 0.983 | > 4 µM | 0.769 | 1.47 µM |
| COLO-824 (breast, adherent, top dose 4 µM) | 0.988 | > 4 µM | 0.982 | > 4 µM | 0.86 | 3.46 µM |
| COR-L23 (large cell lung carcinoma, adherent, top dose 4 µM) | 0.711 | 0.968 µM | 0.842 | 2.7 µM | 0.862 | 3.26 µM |
| COR-L88 (small cell lung carcinoma, adherent, top dose 4 µM) | 0.986 | > 4 µM | 0.974 | > 4 µM | 0.971 | > 4 µM |
| COR-L95 (small cell lung carcinoma, adherent, top dose 4 µM) | 0.987 | > 4 µM | 0.987 | > 4 µM | 0.987 | > 4 µM |
| COR-L279 (small cell lung carcinoma, suspension, top dose 4 µM) | 0.991 | > 4 µM | 0.99 | > 4 µM | 0.951 | > 4 µM |
| COR-L321 (lung, suspension, top dose 4 µM) | 0.987 | > 4 µM | 0.982 | > 4 µM | 0.954 | > 4 µM |
| CP50-MEL-B (melanoma, adherent, top dose 4 µM) | 0.935 | > 4 µM | 0.405 | 0.138 µM | 0.985 | > 4 µM |
| CP66-MEL (melanoma, adherent, top dose 4 µM) | 0.897 | > 4 µM | 0.913 | > 4 µM | 0.977 | > 4 µM |
| CPC-N (small cell lung carcinoma, suspension, top dose 4 µM) | 0.908 | > 4 µM | 0.935 | > 4 µM | 0.899 | > 4 µM |
| CRO-AP2 (B-cell lymphoma, suspension, top dose 4 µM) | 0.672 | 0.703 µM | 0.954 | > 4 µM | 0.649 | 0.607 µM |
| CS1 (bone, adherent, top dose 4 µM) | 0.73 | 1.24 µM | 0.945 | > 4 µM | 0.935 | > 4 µM |
| CTB-1 (B-cell lymphoma, suspension, top dose 4 µM) | 0.65 | 0.759 µM | 0.979 | > 4 µM | 0.818 | 3.39 µM |

| Cell Line | AUC [1] | IC50 [1] | AUC [2] | IC50 [2] | AUC [3] | IC50 [3] |
| --- | --- | --- | --- | --- | --- | --- |
| CTV-1 (acute myeloid leukaemia, suspension, top dose 4 µM) | 0.825 | 1.8 µM | 0.98 | > 4 µM | 0.801 | 1.52 µM |
| CW-2 (large intestine, adherent, top dose 4 µM) | 0.962 | > 4 µM | 0.966 | > 4 µM | 0.966 | > 4 µM |
| Ca9-22 (head and neck, adherent, top dose 4 µM) | 0.852 | 2.75 µM | 0.784 | 1.57 µM | 0.833 | 2.32 µM |
| Ca-Ski (cervix, adherent, top dose 4 µM) | 0.927 | > 4 µM | 0.98 | > 4 µM | 0.89 | > 4 µM |
| CaR-1 (large intestine, adherent, top dose 4 µM) | 0.781 | 2.63 µM | 0.867 | > 4 µM | 0.872 | > 4 µM |
| Calu-3 (lung adenocarcinoma, adherent, top dose 4 µM) | 0.979 | > 4 µM | 0.98 | > 4 µM | 0.943 | > 4 µM |
| Calu-6 (lung adenocarcinoma, adherent, top dose 4 µM) | 0.927 | > 4 µM | 0.828 | 2.99 µM | 0.851 | 3.78 µM |
| Caov-4 (ovary, adherent, top dose 4 µM) | 0.978 | > 4 µM | 0.98 | > 4 µM | 0.98 | > 4 µM |
| Capan-2 (pancreas, adherent, top dose 4 µM) | 0.898 | > 4 µM | 0.808 | 2.64 µM | 0.956 | > 4 µM |
| ChaGo-K-1 (non-small cell lung carcinoma, adherent, top dose 4 µM) | 0.895 | > 4 µM | 0.96 | > 4 µM | 0.849 | 3.75 µM |
| D-247MG (glioma, adherent, top dose 4 µM) | 0.752 | 1.78 µM | 0.972 | > 4 µM | 0.917 | > 4 µM |
| D-263MG (glioma, adherent, top dose 4 µM) | 0.581 | 0.436 µM | 0.579 | 0.431 µM | 0.824 | 3.06 µM |
| D-283MED (medulloblastoma, adherent, top dose 4 µM) | 0.751 | 1.21 µM | 0.955 | > 4 µM | 0.895 | > 4 µM |
| D-392MG (glioma, adherent, top dose 4 µM) | 0.85 | > 4 µM | 0.913 | > 4 µM | 0.933 | > 4 µM |
| D-423MG (glioma, adherent, top dose 4 µM) | 0.76 | 1.7 µM | 0.882 | > 4 µM | 0.856 | > 4 µM |
| D-502MG (glioma, adherent, top dose 4 µM) | 0.752 | 2.04 µM | 0.81 | 3.76 µM | 0.844 | > 4 µM |
| D-542MG (glioma, adherent, top dose 4 µM) | 0.981 | > 4 µM | 0.984 | > 4 µM | 0.984 | > 4 µM |
| D-566MG (glioma, adherent, top dose 4 µM) | 0.864 | 3.42 µM | 0.921 | > 4 µM | 0.782 | 1.65 µM |
| DAN-G (pancreas, adherent, top dose 4 µM) | 0.928 | > 4 µM | 0.93 | > 4 µM | 0.992 | > 4 µM |
| DB (B-cell lymphoma, suspension, top dose 4 µM) | 0.664 | 0.762 µM | 0.873 | > 4 µM | 0.849 | 3.59 µM |
| DBTRG-05MG (glioma, adherent, top dose 4 µM) | 0.727 | 1.25 µM | 0.735 | 1.33 µM | 0.833 | 3.21 µM |

| Cell Line | AUC [1] | IC50 [1] | AUC [2] | IC50 [2] | AUC [3] | IC50 [3] |
| --- | --- | --- | --- | --- | --- | --- |
| DEL (lymphoid neoplasm, suspension, top dose 4 µM) | 0.994 | > 4 µM | 0.994 | > 4 µM | 0.994 | > 4 µM |
| DG-75 (Burkitt lymphoma, suspension, top dose 4 µM) | 0.627 | 0.564 µM | 0.931 | > 4 µM | 0.869 | 3.77 µM |
| DIFI (large intestine, adherent, top dose 4 µM) | 0.882 | > 4 µM | 0.986 | > 4 µM | 0.899 | > 4 µM |
| DJM-1 (skin, adherent, top dose 4 µM) | 0.901 | > 4 µM | 0.956 | > 4 µM | 0.949 | > 4 µM |
| DK-MG (glioma, adherent, top dose 4 µM) | 0.745 | 1.82 µM | 0.818 | 3.9 µM | 0.904 | > 4 µM |
| DMS-79 (small cell lung carcinoma, suspension, top dose 4 µM) | 0.987 | > 4 µM | 0.981 | > 4 µM | 0.986 | > 4 µM |
| DMS-114 (small cell lung carcinoma, adherent, top dose 4 µM) | 0.957 | > 4 µM | 0.985 | > 4 µM | 0.985 | > 4 µM |
| DMS-273 (small cell lung carcinoma, adherent, top dose 4 µM) | 0.964 | > 4 µM | 0.947 | > 4 µM | 0.846 | 3.19 µM |
| DND-41 (T-cell leukaemia, suspension, top dose 4 µM) | 0.832 | 2.14 µM | 0.985 | > 4 µM | 0.903 | > 4 µM |
| DOHH-2 (B-cell lymphoma, suspension, top dose 4 µM) | 0.874 | 3.73 µM | 0.964 | > 4 µM | 0.78 | 1.61 µM |
| DOK (head and neck, adherent, top dose 4 µM) | 0.827 | > 4 µM | 0.835 | > 4 µM | 0.867 | > 4 µM |
| DOV13 (ovary, adherent, top dose 4 µM) | 0.597 | 0.481 µM | 0.81 | 2.51 µM | 0.864 | > 4 µM |
| DSH1 (bladder, adherent, top dose 4 µM) | 0.826 | 2.28 µM | 0.985 | > 4 µM | 0.942 | > 4 µM |
| DU-145 (prostate, adherent, top dose 2 µM) | 0.883 | > 2 µM | 0.984 | > 2 µM | 0.984 | > 2 µM |
| Daudi (Burkitt lymphoma, suspension, top dose 4 µM) | 0.989 | > 4 µM | 0.989 | > 4 µM | 0.906 | > 4 µM |
| Detroit562 (head and neck, adherent, top dose 4 µM) | 0.906 | > 4 µM | 0.973 | > 4 µM | 0.801 | 1.87 µM |
| DoTc2-4510 (cervix, adherent, top dose 4 µM) | 0.986 | > 4 µM | 0.964 | > 4 µM | 0.986 | > 4 µM |
| EB2 (Burkitt lymphoma, suspension, top dose 4 µM) | 0.99 | > 4 µM | 0.99 | > 4 µM | 0.99 | > 4 µM |
| EB-3 (Burkitt lymphoma, suspension, top dose 4 µM) | 0.984 | > 4 µM | 0.983 | > 4 µM | 0.984 | > 4 µM |
| EBC-1 (lung squamous cell carcinoma, adherent, top dose 4 µM) | 0.675 | 0.825 µM | 0.655 | 0.713 µM | 0.902 | > 4 µM |
| EC-GI-10 (oesophagus, adherent, top dose 4 µM) | 0.842 | 2.76 µM | 0.988 | > 4 µM | 0.901 | > 4 µM |
